Laboratory results as given in ChEMBL document CHEMBL4888484, “Replenishing the malaria drug discovery pipeline: Screening and hit evaluation of the MMV Hit Generation Library 1 (HGL1) against asexual blood stage Plasmodium falciparum ,using a nano luciferase reporter read-out” (2022).
“And” between values parts separate entries of the source, which are not always exact repeats. Identical values can stand only once. Among all 150,000 compounds or so, about 540 (0.36%) showed an effect of 50% or more. This is one part of the list.

Test system: Plasmodium falciparum
Assay: Primary screen in NF54 nanoGlo assay, in single point, at 2uM, 72h; a lower Z score goes with more inhibition
Assay type: functional, Erythrocyte
Settings: timepoint 72 hour

| Compound | % Inhibition [%] | Z score | % Inhibition (2 µM) |
| --- | --- | --- | --- |
| CCCOC[C@H]1CCN(C(=O)c2cnn3ccn(C)c23)C1 | 2 | -0.28 |  |
| C#Cc1cncc(-c2noc([C@@](C)(O)C3CC3)n2)c1 | -26 | 2.75 |  |
| Cn1nnc2c(C(=O)NCC3(C(F)F)CC3)ccnc21 | -9 | 1.23 |  |
| NS(=O)(=O)c1ccc(CCNC(=O)[C@@H]2CCN2S(=O)(=O)c2ccccc2)cc1 | -42 | 4.89 |  |
| CCn1nc(CN2CC[C@@]3(C2)C(=O)Nc2ccccc23)c2ccccc21 | 2 | -0.33 |  |
| Cc1cc(-c2c(-c3ccc4ccccc4c3)[nH]c3c2c(=O)n(C)c(=O)n3C)c(C)s1 | -1 | 0.25 |  |
| CC(C)CCn1c(C(=O)Nc2ccccc2)cc2cc(NC(=O)c3ccc(F)cc3)ccc21 | 5 | -0.57 |  |
| CCCCc1nc(C)c(C(=O)NCc2c(C)cc(C)[nH]c2=O)s1 | -3 | 0.34 |  |
| CC(C)c1[nH]ncc1C(=O)N[C@H]1CCCN(c2cccc(F)c2)C1 | 7 | -1.09 |  |
| Oc1ccc2ccccc2c1CN1CCc2ccccc21 | -25 | 2.96 |  |
| C(=C[C@@H]1CCCCCN1)c1ccccc1 | -11 | 1.66 |  |
| COc1ccc(C(=O)Nc2ccc3c(c2)C(=O)Nc2cccnc2O3)cc1OC |  |  | 41% and 20% |
| COCC1(F)CCN(Cc2c(-c3cccc(C)c3)nc3ccccn23)CC1 | -19 | 3.38 |  |
| Cc1oc(C)c(C(=O)N2CCCN3CCC[C@H]3C2)c1C | -1 | 0.21 |  |
| CC1CCCN(C(=O)c2cc(Oc3ccccc3)ccn2)C1CN (stereo not given) | 2 | -0.29 |  |
| O=C(NC1CC1)[C@H]1CCCN(c2snc3ccccc23)C1 | -3 | 0.32 |  |
| COc1ccc(Nc2cc(C(=O)N3CCC(C)CC3)nc3ccc(F)cc23)c(OC)c1 | -10 | 1.08 |  |
| C[C@H](Nc1ccc(C#N)cn1)c1cccc(-n2cccn2)c1 | 0 | 0.03 |  |
| Cc1cc(C)n(C[C@H](C)N2CCOc3ccccc3C2)n1 | -9 | 1.41 |  |
| CN1CCC(n2nc(-c3ccccn3)nc2[C@@H]2COc3ccccc3C2)CC1 | -11 | 1.41 |  |
| O=C(Cc1cccnc1)NCc1cccc(-c2nnn[nH]2)c1 | -10 | 0.94 |  |

| Compound | % Inhibition [%] | Z score | % Inhibition (2 µM) |
| --- | --- | --- | --- |
| O=S(=O)(c1ccc2c(c1)OCCO2)N1CCC[C@@](O)(CO)C1 | -5 | 0.88 |  |
| CN(Cc1ccc(O)cc1)c1ncnc2nc(N)ccc12 | -14 | 1.82 |  |
| C[C@@H](CNC(=O)NCc1cccnc1)N(C)Cc1ccccc1 | 1 | -0.24 |  |
| Cn1cc(CNC(=O)N2CCC(CCc3ccc(F)cc3F)CC2)nn1 | 8 | -1.55 |  |
| Cc1ccc2c(c1)C[C@@H](C(=O)NCCc1csc(N)n1)N2 | 5 | -0.81 |  |
| CCCCOc1c(Cl)cc(CNC(C)(C)CO)cc1OCC | 14 | -1.87 |  |
| Cc1cccc(C2CC2C(=O)N2CCN(c3ncc(F)cn3)CC2)c1 (stereo not given) | 4 | -0.34 |  |
| CCOC(=O)c1cnc(N2CCN(Cc3cccnc3)CC2)s1 | -2 | 0.17 |  |
| c1ccc(OCCN(Cc2ccc3[nH]ccc3c2)C[C@H]2CCCO2)cc1 | -6 | 1.23 |  |
| O=C(NCc1ccccc1O)[C@]1(c2ccccc2)CCCN1 | -15 | 2.54 |  |
| CC(C)(CNC(=O)COc1ccc(CC#N)cc1)N1CCCCC1 | -35 | 4.06 |  |
| Cn1cnnc1-c1nn(C)c2c1CN(C(=O)Cc1cccc(F)c1)CC2 | -12 | 1.76 |  |
| Cc1cc(C)c(NC(=O)[C@H]2CC(=O)N(c3ccc(OCc4ccc(Cl)cc4)cc3)C2)c(C)c1 | -5 | 0.58 |  |
| Cc1ccc([C@H]2C[C@@H](C(F)(F)F)n3ncc(C(=O)N4CCN(c5ccc(F)cc5)CC4)c3N2)cc1 | -5 | 0.75 |  |
| CN(C)c1ncc(CN2CCC[C@H](C(=O)Cc3ccccc3)C2)cn1 | 1 | -0.08 |  |
| Cc1nnc(C(C)NC(C)[C@H]2COC(C)(C)O2)s1 (stereo not given in full) | 16 | -2.03 |  |
| Cc1cccc(C(=O)N(CC2CCN(C3Cc4ccccc4C3)CC2)C[C@H]2CCCO2)n1 | -1 | 0.08 |  |
| CCn1ncnc1[C@H](C)Nc1nnc(C2CC2)o1 | 0 | 0.04 |  |
| Cc1nn2cc(S(=O)(=O)N[C@H]3CC(=O)N(C(C)C)C3=O)cnc2c1Cl | -2 | 0.22 |  |
| COc1cc(NC(=O)Nc2ccc(Nc3ccc(C)nn3)cc2)cc(OC)c1 | 1 | -0.1 |  |
| O=C(Cn1ccnn1)NC1CCCCCC1 | 0 | -0.08 |  |

| Compound | % Inhibition [%] | Z score | % Inhibition (2 µM) |
| --- | --- | --- | --- |
| Cc1nc(CNC(=O)NC2CCCC2CCC(C)C)no1 (stereo not given) | -5 | 0.88 |  |
| CN(C)c1nc(N2CCN(C3CCCCC3)CC2)nc2c1CN(S(=O)(=O)c1ccc(Cl)cc1)CC2 | -1 | 0.28 |  |
| Cc1nc2ccc(Cl)cc2cc1C(=O)N1CCN(Cc2ccc3c(c2)OCCO3)CC1 | -4 | 0.7 |  |
| CC(C)CN1CC[C@H](c2nc3ccc(C#N)cc3[nH]2)C1 | 32 | -3.6 |  |
| O=S(=O)(NCC1CN2CCCC2CO1)c1cccs1 (stereo not given) | -11 | 1.28 |  |
| O=C(Cc1noc(COCc2ccccc2)n1)NC1CCCCC1 | -8 | 0.97 |  |
| CCCn1ncc(C(=O)N2CCC3(CCC(=O)N([C@H]4CCN(C)C4)C3)CC2)c1C | -20 | 2.09 |  |
| O=C(Cn1cnc2ccccc21)NC(c1ccc(F)cc1)[C@H]1C[C@@H](O)C1 (stereo not given in full) | -7 | 1.25 |  |
| c1cncc(COC2CCN(c3cc([C@H]4CCOC4)ncn3)CC2)c1 | 3 | -0.34 |  |
| CC(C)Oc1ccc([C@@H](O)CNC(=O)C(C)(C)c2cccs2)cc1 | -1 | 0.14 |  |
| COc1cccc(NS(=O)(=O)c2cc(C(=O)N3CCN(c4ccccc4)CC3)ccc2NCc2ccc(F)cc2)c1 | 2 | -0.18 |  |
| CC1CCN(C(=O)[C@H]2CCCN(S(=O)(=O)c3ccccc3)CCc3nnc(-c4cccnc4)n3CC2)CC1 | 6 | -0.77 |  |
| Cc1cc(-c2nc(CC3CCN(C)CC3)nn2CCO)c2c(C)noc2n1 | 4 | -0.75 |  |
| CC(NC(=O)c1cccn1Cc1ccccc1)C1CCCO1 (stereo not given) | -14 | 1.87 |  |
| Cc1nn(C)c(C)c1[C@H](C)n1cnc2cnccc2c1=O | 0 | 0.07 |  |
| CCCC1CCC(N(C(=O)c2cnc3c(c2)nnn3C)C(C)C)CC1 (stereo not given) | -20 | 2.74 |  |
| CC(C)(C)OC(=O)N1CCCC2C(N)C(C)(C)C21 (stereo not given) | 6 | -0.85 |  |
| Cc1cc(C)cc(NC(=O)C2CCC(CNS(=O)(=O)c3ccc4c(c3)C(C)(C)C(=O)N4C)CC2)c1 (stereo not given) | -13 | 1.23 |  |
| COc1ccc(-c2cc(C)no2)cc1S(=O)(=O)CCC(=O)Nc1ccccc1C(F)(F)F | -17 | 2.23 |  |
| Cc1ccccc1CC(=O)N1CCN(c2cccc3c2C(=O)N(C2CCCCCC2)C3=O)CC1 | -7 | 0.94 |  |
| N#Cc1cc(CN2CC[C@H](NC(=O)c3ccccn3)[C@@H](O)C2)c[nH]1 | -7 | 0.9 |  |

| Compound | % Inhibition [%] | Z score | % Inhibition (2 µM) |
| --- | --- | --- | --- |
| Cc1cc2cc[nH]c2cc1N1C(=O)[C@H](C)N(C2CC2)C1=O | -20 | 3.78 |  |
| COC1(C(F)(F)F)CN(C(=O)Nc2ccnc(CN(C)C)c2)C1 | -5 | 0.85 |  |
| COCC[C@H]1CCCN(Cc2nonc2C)C1 | -8 | 0.91 |  |
| CC[C@H](C)[C@H](NC(=O)c1cccnc1)c1nc2ccccc2[nH]1 | -9 | 1.06 |  |
| CCS(=O)(=O)NCCS(=O)(=O)N(C)[C@H]1CCc2ccccc21 | 2 | -0.27 |  |
| O=C(NC(Cc1ccncc1)[C@H]1C[C@H](O)C1)c1ccnnc1 (stereo not given in full) | -5 | 0.93 |  |
| CN(C)c1ncn(-c2cccc(NC(=O)NC3CCCCC3C(N)=O)c2)n1 (stereo not given) | -5 | 0.93 |  |
| CN1C(=O)C(C)(C)N(C(=O)C23CC(C2)C3)c2ccccc21 | -18 | 2.61 |  |
| O=C(NS(=O)(=O)Cc1ccc2c(c1)COC2)C1CC2CCC1C2 (stereo not given) | 5 | -0.6 |  |
| COc1ccnc(CN(C)Cc2nc(C)cs2)c1 | 7 | -1.3 |  |
| CCc1ccc(CNC(=O)[C@H]2CCc3nc(N4CCN(C(C)=O)CC4)sc3C2)cc1 | -4 | 0.82 |  |
| CCc1ncnc(O[C@H]2CCN(C(=O)c3ccccn3)C2)c1F | -3 | 0.46 |  |
| Cc1cnc(C(=O)Nc2ccc3c(c2)OCCO3)cn1 | -15 | 1.87 |  |
| O=C(Nc1ccccc1Cl)c1ccc2nc(N3C(=O)CCC3=O)sc2c1 | -7 | 1 |  |
| CCNC(=O)N(C1CC1)[C@H]1CCOC2(CCN(C(=O)c3ccnn3C)CC2)C1 | 5 | -0.77 |  |
| O=C(N1CCCC1)C1(F)CCN(Cc2ccccn2)CC1 | -6 | 0.74 |  |
| CCCN(CC#N)C(=O)C(C)(C)c1cccs1 | -1 | 0.12 |  |
| COCCCC(=O)Nc1cc(C)c(Br)cn1 | 34 | -4.97 |  |
| N#Cc1ccccc1C(=O)N1CCC2(CC1)[C@H](O)C[C@@H]2OCCO | -10 | 1.96 |  |
| COc1ccc(OC)c(NC(N)=NCCc2cccc(O)c2)c1 | 0 | 0.05 |  |
